Source: PubChem BioAssay AID1460 (National Center for Advancing Translational Sciences (NCATS), 2008)
“And” between values parts separate entries of the source, which are not always exact repeats. Equal values may be shown once. The whole screen tested about 270,000 compounds, of which about 5,800 (2.1%) were called active. This list was built around the results that the source calls inconclusive (neither active nor inactive); the mix of calls is not that of the screen. The call rests on the fitted dose curve; in most records, active means well fitted inhibition curve with a large enough effect; inconclusive means small, poorly fitted or top-dose-only effect; inactive means flat fitted curve, though single readings scatter. A potency beside an inconclusive call is a rough fit, not a confirmed value.

These compounds were tested against Microtubule-associated protein tau (Homo sapiens) (UniProt P10636) (assay: qHTS for Inhibitors of Tau Fibril Formation, Thioflavin T Binding). Conditions: recombinant tau K18 P301L (four-repeat tau fragment), heparin-induced fibrillization, ThT fluorescence; series mostly up to 57.4 µM; activity, negative = inhibition: at the top concentration.
Outline: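 Heparin-induced (20 uM) aggregation of recombinant human K18 P301L tau, 15 uM unlabeled with 0.24 uM labeled, pH 7 acetate buffer, 6 hr at 37 C with compound. Fibrils quantified by 30 uM ThT fluorescence after 1 hr ambient incubation.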
Further: nearly all actives have a fitted effect of over 55% in size.
On the % scale 0 is the no-effect control and ±100 the full control effect; potency means the concentration at half of the fitted maximal effect; tags describe the fitted curve by direction and shape.

UniProt P10636, sequence (P10636 whole entry, looked up, the tested form may be a part): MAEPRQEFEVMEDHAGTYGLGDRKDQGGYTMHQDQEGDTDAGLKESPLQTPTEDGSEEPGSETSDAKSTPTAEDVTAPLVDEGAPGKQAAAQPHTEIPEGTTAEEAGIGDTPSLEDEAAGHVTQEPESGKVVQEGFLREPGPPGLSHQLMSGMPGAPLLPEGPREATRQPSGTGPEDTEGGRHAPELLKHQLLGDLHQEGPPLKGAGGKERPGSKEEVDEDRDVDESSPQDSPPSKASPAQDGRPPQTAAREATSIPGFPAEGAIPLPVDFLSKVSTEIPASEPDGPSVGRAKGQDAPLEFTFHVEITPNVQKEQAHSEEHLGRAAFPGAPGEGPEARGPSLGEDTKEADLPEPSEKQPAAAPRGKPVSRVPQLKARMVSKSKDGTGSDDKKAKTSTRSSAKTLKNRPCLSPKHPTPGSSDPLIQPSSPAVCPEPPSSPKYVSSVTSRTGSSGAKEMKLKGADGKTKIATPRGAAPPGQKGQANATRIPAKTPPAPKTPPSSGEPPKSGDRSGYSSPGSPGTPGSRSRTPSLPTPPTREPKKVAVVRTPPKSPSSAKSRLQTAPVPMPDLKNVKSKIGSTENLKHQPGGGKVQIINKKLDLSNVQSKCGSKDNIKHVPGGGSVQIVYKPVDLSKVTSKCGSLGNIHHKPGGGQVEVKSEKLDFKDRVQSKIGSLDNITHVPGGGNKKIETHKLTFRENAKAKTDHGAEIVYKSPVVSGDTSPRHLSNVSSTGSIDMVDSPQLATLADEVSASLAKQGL

| SMILES | activity, negative = inhibition | Potency |
| --- | --- | --- |
| O=C1C=CC[C@@H]2[C@H]3CCCN4CCC[C@@H](CN12)[C@@H]34 | inactive: -3.97% | – |
| CC(C)(C#N)O[C@H]1OC(CO)C(O)C(O)C1O (stereo partly drawn) | – | inconclusive: 1 µM [inhibitor, single point] |
| CCn1c(O)c(C=Nc2ccc(N3CCOCC3)c(Br)c2)c(=O)n(CC)c1=S | – | inconclusive: 28.2 µM [inhibitor, single point] |
| O=C1OCc2cc(N=Nc3c(O)[nH]c(=O)[nH]c3=O)ccc21 | – | inconclusive: 17.8 µM [inhibitor, partial curve] |
| O=C(CN1CC=C(c2ccccc2)CC1)NC(=O)NCc1ccccc1 | – | inconclusive: 14.1 µM [inhibitor, partial curve] |
| COc1ccc(CN2C(=O)NC(=O)/C(=C\c3cc(OC)c(OC)c(OC)c3)C2=O)cc1 | – | inconclusive: 3.16 µM [inhibitor, partial curve] |
| COc1cc2c(cc1OC)-c1c3c(cc4c1[C@@H](C2)N(C)CC4)OCO3 | – | inconclusive: 15.8 µM [inhibitor, partial curve, poor fit] |
| C=CCc1ccc2c(c1)OCO2 | – | inconclusive: 0.0708 µM [inhibitor, full curve, poor fit] |
| O=c1cc(-c2ccc(O)c(O)c2)oc2c(C3O[C@H](CO)[C@@H](O)[C@H](O)[C@H]3O)c(O)cc(O)c12 (stereo partly drawn) | – | inconclusive: 22.4 µM [inhibitor, partial curve, poor fit] |
| CCCCCCCCCCCCCC(=O)O[C@@H]1[C@@H](C)[C@@]2(O)[C@H](C=C(CO)C[C@]3(O)C(=O)C(C)=C[C@@H]23)[C@@H]2C(C)(C)C12OC(C)=O (stereo partly drawn) | – | inconclusive: 39.8 µM [inhibitor, single point] |
| COc1cccc(N2C(=O)NC(=O)/C(=C/c3ccc4c(c3)Cc3ccccc3-4)C2=O)c1 | – | inconclusive: 4.47 µM [inhibitor, partial curve] |
| CCOc1ccc(-n2c(O)c(N=Nc3c(C)n(C)n(-c4ccccc4)c3=O)c(=O)[nH]c2=O)cc1 | – | inconclusive: 14.1 µM [inhibitor, partial curve] |
| Cc1ccc(/C=C2\C(=O)NC(=O)N(Cc3ccccc3Cl)C2=O)o1 | – | inconclusive: 5.62 µM [inhibitor, full curve] |
| CCCCC/C=C\C/C=C\C/C=C\C/C=C\CCCC(=O)NCCCl | – | inconclusive: 25.1 µM [inhibitor, single point] |
| Oc1cc2c(cc1O)[C@H]1c3ccccc3CN[C@H]1CC2 | – | inconclusive: 31.6 µM [inhibitor, partial curve] and inconclusive: 15.8 µM [inhibitor, partial curve] |
| CCOc1ccc(N2CC(c3nc4ccccc4n3CCC3CCCCC3)CC2=O)cc1 (stereo not drawn) | – | inconclusive: 3.55 µM [inhibitor, partial curve] |
| c1ccc(Cn2ccnc2)cc1 | inactive: -6.1% | – |
| CC1(C)C(=O)C=C[C@@]2(C)C1CC(O)[C@]1(C)C2CC[C@@]2(C)C(c3ccoc3)OC(=O)C3O[C@]312 (stereo partly drawn) | – | inconclusive: 35.5 µM [inhibitor, single point] |
| O=c1[nH]c(=S)[nH]c(O)c1N=Nc1cccc(S(=O)(=O)N2CCOCC2)c1 | – | inconclusive: 25.1 µM [inhibitor, partial curve] |
| O=c1[nH]c(O)c(N=Nc2ccc([N+](=O)[O-])cc2)c(=O)[nH]1 | – | inconclusive: 12.6 µM [inhibitor, partial curve] |

| SMILES | activity, negative = inhibition | Potency |
| --- | --- | --- |
| O[N+]1=CC=CCC1=S.On1ccccc1=S.[Zn] | – | inconclusive: 31.6 µM [inhibitor, partial curve] |
| CN1/C(=C\C=C2C(=O)NC(=O)NC2=O)C(C)(C)c2ccccc21 | – | inconclusive: 15.8 µM [inhibitor, partial curve] |
| O=C(CNC(=O)c1ccccc1)NCC(=O)OCC(=O)c1ccc([N+](=O)[O-])cc1 | – | inconclusive: 22.4 µM [inhibitor, partial curve] |
| Fc1ccc(C(OCCN2CCN(C/C=C\c3ccccc3)CC2)c2ccc(F)cc2)cc1 | – | inconclusive: 17.8 µM [inhibitor, partial curve] |
| CCOc1ccc(Nc2c(S(=O)(=O)c3ccc(C)cc3)cnc3ccccc23)cc1 | – | inconclusive: 17.8 µM [inhibitor, single point] |
| c1ccc([Se]c2c(-c3ccccc3)[se]c3ccccc23)cc1 | inactive: -2.79% [at 81.4 µM] | – |
| CC1CCCC(C2(O)C(=O)Nc3ccccc32)C1=O (stereo not drawn) | inactive: -0.366% | – |
| CC(=O)Nc1ccccc1C(=O)OCC(=O)c1cccc2ccccc12 | – | inconclusive: 25.1 µM [inhibitor, partial curve] |
| CN1C(=O)NC(=O)/C(=C\c2ccc([N+](=O)[O-])o2)C1=O | – | active: 28.2 µM |
| CCCCCSc1cc(OC)c(CCN)cc1OC | – | inconclusive: 39.8 µM [activator, partial curve] |
| N#CC(C#N)=NNc1ccc(S(=O)(=O)N2CCCC2)cc1 | – | active: 17.8 µM |
| CCCOC(=O)c1cc2c(cn1)[nH]c1ccccc12 | – | inconclusive: 39.8 µM [inhibitor, single point] |
| Nc1ncnc2c1ncn2[C@@H]1O[C@H](COP(=O)(O)OP(=O)(O)OP(=O)(O)O)[C@H]2OC3(O[C@H]21)C([N+](=O)[O-])=CC(=[N+]([O-])[O-])C=C3[N+](=O)[O-] (stereo partly drawn) | – | inconclusive: 7.08 µM [inhibitor, single point] |
| C[C@H](CCC(=O)O)C[C@H](C)C[C@H](C)C(=O)/C=C(\O)[C@H](C)C[C@H](C)C/C=C/[C@@H](C)[C@@H](O)[C@@H](C)[C@@H](O)C[C@@H]1CC[C@@](C)([C@H]2CC[C@@](C)([C@@H](C)O)O2)O1 | – | inconclusive: 28.2 µM [inhibitor, partial curve] |
| CCOc1ccc2nc(N=Nc3c(O)[nH]c(=O)[nH]c3=O)sc2c1 | – | active: 4.47 µM |
| CN=C(SCc1cc2c(cc1Cl)OCO2)c1c(O)n(C)c(=O)n(C)c1=O | – | inconclusive: 28.2 µM [inhibitor, single point] |
| Cc1oc(-c2cccc(Cl)c2)nc1CN1CCC(C(=O)NCCCN2CCN(c3cccc(Cl)c3)CC2)CC1 | – | inconclusive: 28.2 µM [inhibitor, partial curve] |
| Cc1c(N=Cc2c(O)n(C3CCCCC3)c(=O)[nH]c2=O)c(=O)n(-c2ccccc2)n1C | – | inconclusive: 35.5 µM [inhibitor, single point] |
| O=C(NCC(c1cccnc1)N1CCN(c2ccccc2)CC1)Oc1ccccc1 (stereo not drawn) | – | inconclusive: 15.8 µM [inhibitor, partial curve] |
| CCOP(=S)(OCC)Oc1cc(C)oc(=O)c1 | – | inconclusive: 20 µM [inhibitor, single point] |

| SMILES | activity, negative = inhibition | Potency |
| --- | --- | --- |
| Nc1c(C(=O)NCc2ccco2)c2nc3ccccc3nc2n1CCN1CCCCC1 | – | inconclusive: 10 µM [inhibitor, partial curve] |
| O=c1c2ccccc2nc(CNc2ccccc2)n1-c1ccccc1 | – | inconclusive: 11.2 µM [inhibitor, partial curve, poor fit] |
| CCOc1ccc(-c2cn3c(n2)sc2cc(C(=O)N4CCCC(C)C4)ccc23)cc1 (stereo not drawn) | – | inconclusive: 3.55 µM [inhibitor, full curve, poor fit] |
| Cc1cccc(N2C(=O)NC(=O)/C(=C\c3ccc(N4CCOCC4)cc3)C2=O)c1 | – | inconclusive: 1.12 µM [inhibitor, full curve] |
| COc1ccc2c(c1)CC1(CN2C)C(=O)NC(=O)N(c2ccc(C)cc2)C1=O (stereo not drawn) | – | inconclusive: 39.8 µM [inhibitor, partial curve] |
| CCOC(=O)c1c(C)n(Cc2ccc3c(c2)OCO3)c2ccc(O)cc12 | – | inconclusive: 17.8 µM [inhibitor, partial curve] |
| Cn1cccc1/C=C1\C(=O)NC(=O)N(Cc2ccccc2)C1=O | – | inconclusive: 39.8 µM [inhibitor, single point] |
| Cc1cc(N(CCCl)CCCl)ccc1/C=N/NC(=O)c1ccco1 | – | inconclusive: 11.2 µM [inhibitor, partial curve] |
| COc1cc(OC)c(OC)cc1CN1CCc2nc(N3CCN(c4ccccc4F)CC3)ncc2C1 | – | inconclusive: 11.2 µM [inhibitor, partial curve] |
| COC(=O)C1=CO[C@@H](C)[C@@H]2CN3CCc4c([nH]c5cc(OC)ccc45)[C@@H]3C[C@H]12 | – | active: 22.4 µM |
| O=[N+]([O-])c1ccc(N2CCCCCC2)c2ncccc12 | – | active: 15.8 µM |
| Cc1cc(C)cc(-n2c(O)c(C=Nc3ccc(N4CCOCC4)cc3)c(=O)[nH]c2=S)c1 | – | inconclusive: 11.2 µM [inhibitor, partial curve] |
| Nc1nnc(Sc2ncccc2[N+](=O)[O-])s1 | – | inconclusive: 15.8 µM [inhibitor, single point] |
| O=C(N/N=C/c1c(O)n(Cc2ccccc2)c(=O)[nH]c1=O)c1ccccc1 | – | inconclusive: 10 µM [inhibitor, partial curve, poor fit] |
| Cc1ccc(N)c(C(=O)c2ccc(Br)cc2)c1 | – | inconclusive: 25.1 µM [inhibitor, single point] |
| Cc1ccc(-n2nc(C)c3c2OC(N)=C(C#N)C3c2cccs2)cc1 (stereo not drawn) | – | inconclusive: 17.8 µM [inhibitor, partial curve] |
| CC1COC2=C1C(=O)C(=O)c1c2ccc2c1CCCC2(C)C (stereo not drawn) | – | active: 3.55 µM and active: 12.6 µM |
| COc1ccc(C2CC(c3c(O)n(C4CCCCC4)c(=O)[nH]c3=O)=Nc3ccccc3S2)cc1 (stereo not drawn) | – | inconclusive: 31.6 µM [inhibitor, single point] |
